Measured values published in PubChem BioAssay AID485364 (National Center for Advancing Translational Sciences (NCATS), 2010).
The whole screen tested about 360,000 compounds, of which about 11,000 (3.1%) were called active. The inconclusive results got no clear call from the source; some entries with a clear call stand among them for comparison. Calls come from the whole dose curve; as a rule, active = well fitted inhibition curve with a large enough effect; inconclusive = small, poorly fitted or top-dose-only effect; inactive = no such curve, though single readings can be large or run the other way. Potencies of inconclusive entries are left out as doubtful fits.
% is set by controls: 0 for no effect and ±100 for the full control effect; potency is the fitted concentration of half-maximal effect; tags give direction and shape of the fitted curve.
Note: nearly all actives have a fitted effect of over 60% in size.

Each compound was assayed against Schistosoma mansoni thioredoxin glutathione reductase (TGR) (UniProt Q962Y6) (assay: qHTS Assay for the Inhibitors of Schistosoma Mansoni Peroxiredoxins). Details: purified TGR, DTNB reduction, TNB absorbance 405 nm; activity change, negative = inhibition: at 114 µM (top of the series) unless noted.
Method in brief: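 First, TGR (20 nM dispensed) and NADPH were mixed with compound. Second, a 15 min room-temperature incubation followed. Third, further NADPH and then DTNB were added to start the reaction. Finally, TNB absorbance was monitored kinetically.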
C=CCSC1=N/C(=C\C=C\c2ccco2)C(=O)S1 was tested, and the Potency was inconclusive [inhibitor, full curve].
COc1cccc(Nc2ncnc3sc(C)cc23)c1 was tested, and the “activity change, negative = inhibition” value was inactive: -8.71%.
With COc1cc(C2c3c(-c4ccccc4)n[nH]c3C(=O)N2c2ccc(C(=O)O)cc2)ccc1O (configuration not stated) the Potency was inconclusive [inhibitor, partial curve].
For COc1ccc([C@]23Cc4cc(C#N)ccc4C(O2)c2c(cc(C)n(-c4ccccc4)c2=O)O3)cc1, the Potency was inconclusive [inhibitor, partial curve].
In the case of CSCCC(NS(=O)(=O)c1ccc(Cl)cc1)C(=O)OCC(=O)c1c(C)[nH]c2ccccc12 (configuration not stated), the “activity change, negative = inhibition” value is reported as inactive: -10.9%.
With COc1ccc(S(=O)(=O)N2CCN(CCOc3ccccc3Cl)CC2)cc1OC the “activity change, negative = inhibition” value was inactive: -22.6%.
In the case of Cc1ccc(C(=O)/C=C/c2cc(Br)cc(Br)c2O)o1, the Potency is reported as active: 1.58 µM.
In the case of COc1cc(CC(=O)NCC(C)(C)N2CCOCC2)cc(OC)c1OC, the “activity change, negative = inhibition” value is reported as inactive: -2.1%.
COc1ccc(-c2nn(CCC#N)cc2C(=O)Nc2ccccc2)cc1OC was tested, and the Potency was inconclusive [inhibitor, single point].
In the case of COc1ccc(/C=C2\CCCC(C(=O)C(F)(F)F)=C2O)cc1, the Potency is reported as inconclusive [inhibitor, partial curve].
In the case of CCN(C(=O)Cc1c(C(=O)O)c(C)cn1C)c1cccc(Cl)c1, the “activity change, negative = inhibition” value is reported as inactive: 6.38%.
In the case of CCCn1nnc(NC(=O)Cc2ccccc2)n1, the Potency is reported as inconclusive [inhibitor, full curve, poor fit].
In the case of CCOC(=O)c1ccc(NC(=S)NCc2ccccc2)cc1, the Potency is reported as inconclusive [inhibitor, partial curve].
For NNC(=S)Nc1cccc(Cl)c1, the Potency was inconclusive [inhibitor, full curve, poor fit].
C#CCOCCOCCOCCNc1nc(N2CCOCC2)nc(N2CCN(C(=O)[C@H]([C@@H](C)CC)n3cc(CCCCN)nn3)CC2)n1 was tested, and the “activity change, negative = inhibition” value was inactive: -19.1%.
CCCCSC(=O)Nc1ccccc1 was tested, and the Potency was inconclusive [inhibitor, full curve, poor fit].
In the case of CC1=C([N+](=O)[O-])C(c2ccc(O)c(O)c2)NC(=O)N1 (configuration not stated), the Potency is reported as inconclusive [inhibitor, partial curve].
For O=c1oc2ccc(Cl)cc2nc1/C=C(\O)c1cccs1, the Potency was inconclusive [inhibitor, partial curve].
For Cc1ccc2nc3c(cc(C(=O)NCCN4CCOCC4)c(=N)n3CCCN3CCOCC3)c(=O)n2c1, the “activity change, negative = inhibition” value was inactive: 0.418%.
CCOC(=O)c1ccc(NC(=O)c2nc[nH]c2C(=O)N[C@@H](Cc2ccccc2)C(=O)OC(C)(C)C)cc1 was tested, and the “activity change, negative = inhibition” value was inactive: -1.81%.
In the case of COc1ccc(NC(=O)Nc2sc(NS(=O)(=O)c3ccccc3)nc2C)cc1, the Potency is reported as inconclusive [inhibitor, partial curve, poor fit].
With CN(C(=O)c1ccc2c(c1)N(Cc1ccc(F)cc1)C(=O)c1ccccc1S2(=O)=O)C1CCCCC1 the “activity change, negative = inhibition” value was inactive: -1.09%.
For COc1ccc(C(=O)NNc2ncnc3c2cnn3-c2ccc(C)cc2C)cc1, the Potency was inconclusive [inhibitor, single point].
COc1ccc(Cn2nnnc2C(c2cc3cc(C)cc(C)c3[nH]c2=O)N2CCOCC2)cc1 (configuration not stated) was tested, and the Potency was inconclusive [inhibitor, partial curve].
CC1CCN(S(=O)(=O)c2cc(C(=O)NCc3ccccc3)n(C)c2)CC1 was tested, and the “activity change, negative = inhibition” value was inactive: 2.05%.
For O=C(c1ccco1)N1CCN(Cc2ccc(Br)cc2)CC1, the Potency was inconclusive [inhibitor, full curve, poor fit].
In the case of Cc1nnc(NC(=O)CCNC(=O)c2ccccc2Cl)s1, the “activity change, negative = inhibition” value is reported as inactive: -0.329%.
Cc1ccc(-c2nc3ccccn3c2Nc2ccccc2)o1 was tested, and the Potency was inconclusive [inhibitor, partial curve].
For COc1ccc(-c2ccc(SCC(=O)NCc3ccco3)nn2)cc1OC, the Potency was inconclusive [inhibitor, full curve].
For Cc1ccc(-c2nn(C)c(=O)c3ccccc23)cc1S(=O)(=O)NCCCN(C)C, the “activity change, negative = inhibition” value was inactive: 6.48%.
For c1ccc(Cn2nnc3c(NCCN4CCOCC4)ncnc32)cc1, the Potency was inconclusive [inhibitor, single point].
In the case of CCN(c1ccc(OC)cc1)S(=O)(=O)c1nnc(NC(=O)c2ccco2)s1, the Potency is reported as inconclusive [inhibitor, partial curve].
For N=c1sccn1CC(=O)NC(=O)NC1CCCC1, the “activity change, negative = inhibition” value was inactive: -1.17%.
In the case of Cc1ccc2nc(SC(C)C(=O)N3CC(C)OC(C)C3)[nH]c2c1 (configuration not stated), the “activity change, negative = inhibition” value is reported as inactive: 0.449%.
For Cc1[nH]c2ccccc2c1C(=O)C(=O)NCc1cccs1, the “activity change, negative = inhibition” value was inactive: 2.06%.
In the case of Cc1cc(Nc2cc(F)ccc2C)n2nc(C)nc2n1, the “activity change, negative = inhibition” value is reported as inactive: -8.31%.
In the case of O=C(c1ccccc1F)N1c2nc(-c3ccco3)nn2C2(CCCCC2)[C@@H]2CCCC[C@@H]21, the Potency is reported as active: 10 µM.
COC(=O)C[C@]1(C(=O)OC)CN(C#N)N(c2ccc(Cl)cc2)C12c1ccccc1-c1ccccc12 was tested, and the “activity change, negative = inhibition” value was inactive: -33.5%.
For C#Cc1ccc([C@@H]2C=C(C(=O)N3CCN(Cc4ccccc4)CC3)O[C@H](OCCCCO)C2)cc1, the Potency was active: 12.6 µM.
Cn1cnnc1SCC(=O)c1ccc2c(c1)NC(=O)CO2 was tested, and the Potency was inconclusive [inhibitor, partial curve].
O=C1CCN2C=Nc3cccc4ccc1c2c34 was tested, and the Potency was inconclusive [inhibitor, full curve, poor fit].
For CN(C)c1ccc(-n2c(CCC(=O)O)ccc2-c2ccccc2)cc1, the Potency was inconclusive [inhibitor, partial curve].
For O=C(COC(=O)c1ccc([N+](=O)[O-])o1)Nc1cccc(S(=O)(=O)N2CCOCC2)c1, the Potency was inconclusive [inhibitor, partial curve].
In the case of Clc1ccc(OCC#CCN2CCCCCC2)cc1, the Potency is reported as inconclusive [inhibitor, partial curve].
For O=[N+]([O-])c1ccc(/C=N/NC(=S)Nc2ccc(Cl)cc2Cl)s1, the Potency was active: 44.7 µM.
Nc1ccc(N2CCCCC2)c2nonc12 was tested, and the Potency was inconclusive [inhibitor, partial curve].
C[C@@H](CN1C2=NC[C@H](C)N2C[C@H]1Cc1ccc(O)cc1)NC(=O)CCC1CCCCC1 was tested, and the Potency was inconclusive [inhibitor, single point].
